Structures can show the parent of a compound that is named as a salt.
Columns and labels:
[1] = tested on: tobacco leaf discs co-cultivated with Agrobacterium; assay: Positive selection of transformed shoots using ZOGN sodium salt; format: cell-based; details: pH 8.0
Procedure: Using essentially the same procedure as described in Example 13 transgenic tobacco shoots were prepared and selected using cytokinin glucuronide zeatin-o-β-glucuronic acid (ZOGN) as the positive selection agent.
Co-cultivation was carried out for 3 days, the inoculum density corresponding to an OD of 1.5 at 660 nm. The substrate used after co-cultivation was MSO containing 300 mg/l carbenicillin, 300 mg/l cefotaxime and 0.1 mg/l indole acetic acid (IAA). Subcultivation after 3 weeks was to the same substrate but without IAA. The pH in all substrates used in this example was 8.0. 18 leaf discs were used for each treatment.
Five weeks after co-cultivation the shoots were transferred to an MSO substrate containing 200 mg/l kanamycin sulfate, 32 mM saccharic acid, 300 mg/l cefotaxime and 300 mg/l carbenicillin, pH 8.0. Saccharic acid, an inhibitor of β-glucuronidase enzymes, was added to stop further conversion of zeatin glucuronide to zeatin. Together with the β-glucuronidase gene an NPT gene providing resistance to kanamycin was co-transferred. Non-transformed shoots (negative controls) survived, but the growth of these shoots was retarded on this substrate, while all of the transformed shoots (positive controls) containing an active NPT gene survived without any growth retardation.
The number of shoots was registered and the number of GUS-positive shoots among the total number of shoots was determined by the X-gluc assay (Example 3) 3 weeks after the last sub-cultivation (8 weeks after co-cultivation).

[2] = tested on: tobacco leaf discs co-cultivated with Agrobacterium; assay: Positive selection using ZOGN sodium salt at different temperatures; format: cell-based
Procedure: Transgenic tobacco shoots were prepared using essentially the same procedure as described below in Example 13. Co-cultivation was carried out for 3 days, the inoculum density corresponding to an OD of 1.5 at 660 nm. The substrate used after co-cultivation was MSO containing 10 mg/l 1-(2-hydroxyethylamino)-6-benzylamino-9-methylpurine (9-met), 350 mg/l carbenicillin, 350 mg/l cefotaxime and 0.1 mg/l indole acetic acid (IAA) and ZOGN sodium salt as indicated. 9-met (obtained from Apex Organics Ltd., UK) was added to inhibit glycosylation of zeatin and zeatin derivatives. 18 leaf discs were used for each treatment.
Seven weeks after co-cultivation the shoots were transferred to an MSO substrate containing 300 mg/l kanamycin sulfate, 350 mg/l cefotaxime, 350 mg/l carbenicillin, 0.1 mg/l IAA and 10 mg/l 6-(m-hydroxybenzylamino)-purine (OH-BA) and placed at a temperature of 25° C. OH-BA can be prepared as described by Kaminek et al. (Plant Growth Reg. 6, pp 113-120, 1987).
After six weeks on the kanamycin-containing substrate the number of green shoots was registered. […] No non-transformedshoots (negative controls) survived on this substrate, while all of the transformed shoots (positive controls) containing an active NPT gene survived.
The percentage of kanamycin resistant shoots among the total number of regenerated shoots was calculated as the number of green shoots surviving on the kanamycin-containing substrate divided by the number of shoots transferred to the kanamycin-containing substrate.

[3] = ZOGN 0.07 mg/l + SL (2 mM saccharo 1,4-lactone)
[4] = ZOGN 0.07 mg/l, 8 weeks after co-cultivation

## C/C(=C\CNc1ncnc2[nH]cnc12)CO[C@@H]1O[C@H](C(=O)O)[C@@H](O)[C@H](O)[C@H]1O [ZOGN sodium salt, O-β-D-glucopyranuronosylzeatin, sodium salt]
[1]; [3]
  % GUS-positive shoots among total shoots: 0%
  GUS-postive shoots per leaf disc: 0
[1]; [4]
  % GUS-positive shoots among total shoots: 18.5%
  GUS-postive shoots per leaf disc: 0.3
[1]; ZOGN 1.0 mg/l
  % GUS-positive shoots among total shoots: 40.3%
  GUS-postive shoots per leaf disc: 2.8
[1]; ZOGN 15.0 mg/l
  % GUS-positive shoots among total shoots: 5.1%
  GUS-postive shoots per leaf disc: 0.2
[2]; 25 ° C., ZOGN 1 mg/l
  % Kanamycin-res. Shoots among total shoots: 4.3%
  Kanamycin-res. Shoots per leaf disc: 0.3
[2]; 25 ° C., ZOGN 15 mg/l
  % Kanamycin-res. Shoots among total shoots: 0%
  Kanamycin-res. Shoots per leaf disc: 0
[2]; 30 ° C., ZOGN 1 mg/l
  % Kanamycin-res. Shoots among total shoots: 14.8%
  Kanamycin-res. Shoots per leaf disc: 1.3
[2]; 30 ° C., ZOGN 15 mg/l
  % Kanamycin-res. Shoots among total shoots: 26.2%
  Kanamycin-res. Shoots per leaf disc: 2.4
[2]; 35 ° C., ZOGN 1 mg/l
  % Kanamycin-res. Shoots among total shoots: 26.7%
  Kanamycin-res. Shoots per leaf disc: 0.2
[2]; 35 ° C., ZOGN 15 mg/l
  Kanamycin-res. Shoots per leaf disc: 0.2
